This note sets out measurements from US20120058977A1, “PHARMACEUTICAL COMPOSITIONS AND METHODS FOR TREATING TUBERCULOSIS” (Rijksuniversiteit Groningen, priority 2009, published 2012).

One assay deals with M. smegmatis ΔipdAB. The assay is described as follows: Cell growth inhibition of M. smegmatis ΔipdAB (mineral glucose liquid medium or agar plates).
The subject of assay [1] is 3-ketosteroid 9α-hydroxylase (KSH) activity. The note with it: AD 0.5 g/L, strain RG8-37 cell cultures.

“3aα-H-4α(3′-propionic acid)-5α-hydroxy-7aβ-methylhexahydro-1-indanone-δ-lactone [HIL, reference compound]”: in the assay with M. smegmatis ΔipdAB (HIL 200 mg/l, 37° C., after 3 days), the “growth of ΔipdAB mutant on glucose mineral agar plates” value was “no growth”. The “delay of the onset of growth of ΔipdAB” value in the assay with M. smegmatis ΔipdAB (liquid mineral glucose medium, 100 and 200 mg/l HIL) is listed as “approximately 48 hours”. Moreover, the “growth inhibition of ΔipdAB in mineral glucose medium” value with M. smegmatis ΔipdAB (liquid, 100 and 200 mg/l HIL) was “Growth inhibition was observed”. Also, in assay [1] (HIL 100 mg/L added, in 8 hours), the “AD conversion (AD 9α-hydroxylation)” value amounted to 20%. In addition, the “inhibition of AD 9α-hydroxylation” value in assay [1] (HIL 100 mg/L) is recorded as “marked inhibition”.
